# Experimental data reported in PubChem BioAssay AID360 (National Center for Advancing Translational Sciences (NCATS), 2006).
# About 550 (1.1%) of roughly 48,000 compounds were called active. Another 4% or so got no clear call; they are omitted. Cut-off read from the data, not from the text of the source: active = potency below about 15 µM; inconclusive = mostly about 16 µM to 33 µM; inactive = weaker than that. This is one part of the list.
# Molecular target: Lysosomal acid glucosylceramidase (Homo sapiens) (UniProt P04062)
# Sequence of UniProt P04062 (P04062 whole entry, looked up): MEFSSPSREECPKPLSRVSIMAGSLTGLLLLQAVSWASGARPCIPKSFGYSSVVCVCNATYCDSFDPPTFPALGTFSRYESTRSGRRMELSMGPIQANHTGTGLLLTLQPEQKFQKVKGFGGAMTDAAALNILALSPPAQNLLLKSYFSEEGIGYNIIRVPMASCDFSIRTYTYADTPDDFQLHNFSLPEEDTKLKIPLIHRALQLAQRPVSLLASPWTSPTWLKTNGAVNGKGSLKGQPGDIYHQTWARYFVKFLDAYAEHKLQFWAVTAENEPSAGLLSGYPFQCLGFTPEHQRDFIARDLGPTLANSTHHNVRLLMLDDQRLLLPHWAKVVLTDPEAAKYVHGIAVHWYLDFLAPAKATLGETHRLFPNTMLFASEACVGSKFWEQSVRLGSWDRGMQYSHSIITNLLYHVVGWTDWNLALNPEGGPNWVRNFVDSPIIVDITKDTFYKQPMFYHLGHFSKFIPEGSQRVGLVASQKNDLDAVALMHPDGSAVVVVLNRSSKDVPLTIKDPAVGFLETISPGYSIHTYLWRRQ
# Experiment: Glucocerebrosidase;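 note: the screen sought inhibitors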
# Conditions: purified enzyme, resorufin glucoside fluorescence (screen aimed at inhibitors), 20 min
# Outline: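 Normal human glucocerebrosidase (0.2 nM final) was assayed with resorufin β-D-glucopyranoside (30 uM final) in 50mM citric acid/KH2PO4, 10mM sodium taurocholate, 0.01% tween-20, pH 5.9. Compounds were titrated; fluorescence (Ex 548, Em 600) read after 20 min at RT.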
# Potency is the fitted concentration of half-maximal effect.
row,SMILES,Potency
1,Cc1nc2ccc(NC(=O)Cc3cccs3)cc2s1,inactive: > 76.9 µM
2,O=C(NCC1CCCO1)c1ccc2c(=O)n(CCc3ccccc3)c(=O)[nH]c2c1 (stereo not drawn),inactive: > 76.9 µM
3,CCCS(=O)(=O)Nc1c(C(=O)O)[nH]c2ccccc12,inactive: > 76.9 µM
4,CCCN(C(=O)Cc1nc(N)n[nH]1)C1(C(=O)Nc2c(C)cccc2C)CCCCC1,inactive: > 76.9 µM
5,Cc1nc(SCC(=O)N2CCN(C(=O)c3ccco3)CC2)c2c(C)c(C)sc2n1,inactive: > 76.9 µM
6,C=CCn1c(Cc2nc3ccc(Cl)cc3[nH]2)n[nH]c1=S,inactive: > 76.9 µM
7,O=C(NCc1ccccc1)C1CCN(S(=O)(=O)N2CCOCC2)CC1,inactive: > 76.9 µM
8,COCCNC(=O)c1ccc2c(c1)NC(=O)CS2,inactive: > 76.9 µM
9,COc1ccc(-c2nnn(CC(=O)N(C3CCCCC3)C(C)C(=O)NC3CCCC3)n2)cc1OC (stereo not drawn),inactive: > 76.9 µM
10,COCCn1c(SCc2nc3sc(C(=O)OC)c(C)c3c(=O)[nH]2)nc2ccccc21,inactive: > 76.9 µM
11,CCOC(=O)c1cnc2nc(NCc3ccc(OC)c(OC)c3)[nH]n2c1=O,inactive: > 76.9 µM
12,CCOCCc1nnc(NC(=O)Cc2ccccc2)s1,inactive: > 76.9 µM
13,Cc1cc(C(=O)COC(=O)Cn2cnc3c2c(=O)n(C)c(=O)n3C)c(C)n1C,inactive: > 76.9 µM
14,CSCC[C@H](NC(=O)C1CCN(S(=O)(=O)c2ccc(C)cc2)CC1)C(=O)NCc1ccco1,inactive: > 76.9 µM
15,Cc1ccc2[nH]c(-c3cccc(N)c3)cc2c1,inactive: > 15.4 µM
16,CN(C(=O)c1ccncc1)c1nnc(-c2cccnc2)s1,inactive: > 76.9 µM
17,CC(=O)Nc1nc2ccccc2n1Cc1ccccc1C,inactive: > 76.9 µM
18,COc1ccc(NC(=O)C2CCN(Cc3cnn(-c4ccccc4)c3-n3cccc3)CC2)cc1OC,inactive: > 76.9 µM
19,COC(=O)C1CCN(C(=O)COC(=O)Cc2c[nH]c3ccccc23)CC1,inactive: > 76.9 µM
20,CCOC(=O)Cc1csc(/C(=N/O)C(N)=O)n1,inactive: > 76.9 µM

row,SMILES,Potency
1,CCOC(=O)c1[nH]c2ccc(F)cc2c1NC(=O)CN1CCc2cc(OC)c(OC)cc2C1,inactive: > 76.9 µM
2,Cc1cc(C(C)(C)C)cc(C)c1COC(=O)C1CCC(=O)N1 (stereo not drawn),inactive: > 76.9 µM
3,CCCCCn1c(=O)c(-c2nc3ccccc3c(=O)[nH]2)c(O)c2ccccc21,inactive: > 76.9 µM
4,COc1ccc(CNC2CCCCC2)cc1,inactive: > 76.9 µM
5,O=C(NC1CCCCC1)/C(=N\O)c1ccccn1,inactive: > 76.9 µM
6,O=C(CSc1nnc(Cn2nnc3ccccc32)o1)N(Cc1ccc(F)cc1)c1ccccc1,inactive
7,COc1cccc(NC(=O)CNC(=O)c2ccc(F)cc2)c1,inactive: > 76.9 µM
8,CCC(=O)/C=C1\Sc2ccc(OC)cc2N1CCO,inactive: > 76.9 µM
9,CCOC(=O)c1sc(C)c2c1NC(C)(c1cccs1)NC2=O (stereo not drawn),inactive: > 76.9 µM
10,CC1CCCN(S(=O)(=O)c2ccc(C(=O)Nc3nnc(-c4ccccc4Cl)o3)cc2)C1 (stereo not drawn),inactive: > 76.9 µM
11,CN1C(=O)CSc2ccc(NC(=O)N3CCOCC3)cc21,inactive: > 76.9 µM
12,CCCCOc1ccc(C(=O)NCc2ccccn2)cc1,inactive: > 76.9 µM
13,CN(C)C(=O)Cn1c(=O)n(C)c2ccccc21,inactive: > 76.9 µM
14,COc1cc(NC(=O)c2ccccc2)c(OC)cc1NC(C)=O,inactive: > 76.9 µM
15,Cc1cc(C)nc(NC2=NCCN2C(=O)NC2CCCCC2)n1,inactive: > 76.9 µM
16,CCn1c(SCC(=O)Nc2c(C)n(C)n(-c3ccccc3)c2=O)nnc1-c1cccc(C)c1,inactive: > 76.9 µM
17,C=CCn1c(Oc2cc(C)ccc2C)nc2c1c(=O)n(C)c(=O)n2C,inactive: > 76.9 µM
18,Cc1cc(C)c2c(n1)nn1c(C3CC3)cc(C(F)(F)F)nc21,inactive: > 76.9 µM
19,Cn1cc(CC(=O)Nc2cccc(C#N)c2)c2ccccc21,inactive: > 76.9 µM
20,CCS(=O)(=O)CCSc1nc2ccccc2o1,inactive: > 76.9 µM

row,SMILES,Potency
1,CC(=O)C1C(c2ccncc2)NC(=O)NC1(O)C(F)(F)F (stereo not drawn),inactive: > 76.9 µM
2,COc1ccc(Br)cc1CNCCSc1nnnn1C,inactive: > 76.9 µM
3,O=C(NCc1cccs1)c1ccc2c(c1)OCCO2,inactive: > 76.9 µM
4,N#Cc1nc(COc2ccccc2F)oc1N1CCCCCC1,inactive: > 76.9 µM
5,COc1ccc(C(=O)N2CCN(C(=O)c3ccco3)CC2)cc1OC,inactive: > 76.9 µM
6,CCOC(=O)N1CCN(C(=O)CSCC(=O)Nc2nc(-c3cccs3)cs2)CC1,inactive: > 76.9 µM
7,COc1ccccc1N1CCN(C(=O)c2c(-c3ccccc3Cl)noc2C)CC1,inactive: > 76.9 µM
8,O=C(CSc1nc(Nc2ccccc2)nc(N2CCOCC2)n1)Nc1ccc2c(c1)OCCO2,inactive: > 76.9 µM
9,O=C(O)c1cc2n(n1)C(C(F)(F)F)CC(c1ccco1)N2 (stereo not drawn),inactive: > 76.9 µM
10,C=CCn1c(SCC(=O)NCc2ccco2)nnc1-c1ccc2ccccc2n1,inactive: > 76.9 µM
11,CC1CCN(CCCNC(=O)Cc2c(C(=O)O)n(C)c3ccccc23)CC1,inactive: > 76.9 µM
12,COc1ccc(C(c2nnnn2Cc2ccccc2)N2CCN(C(=O)c3ccco3)CC2)cc1 (stereo not drawn),inactive: > 76.9 µM
13,O=C(Nn1c(C2CC2)nc2ccccc2c1=O)c1ccco1,inactive: > 76.9 µM
14,COC(=O)c1ccc(CSc2nc3c(c(=O)n2-c2ccc(Br)cc2)SCC3)o1,active: 4.94 µM
15,COc1cccc(OC)c1C(=O)Nc1ccc(NC(=O)c2ccco2)cc1,inactive: > 76.9 µM
16,Cc1cc(N2CCN(C(=O)OC(C)(C)C)CC2)n2ncnc2n1,inactive: > 76.9 µM
17,COC(=O)COc1cccc(-n2cnnn2)c1,inactive: > 76.9 µM
18,CCN(CC(=O)NC1CCCC1)S(=O)(=O)c1ccc(C)cc1,inactive: > 76.9 µM
